Results from the supplement of paper PMC6135742.
Structures can show the parent of a compound that is named as a salt. ± gives the standard deviation of the averaged measurements. Over roughly 2,600 compounds, “MBP+ mature oligodendrocyte number relative to DMSO vehicle control” has its median near -0.34; the highest 2% begin near 13. The list shows a part of the results.

System: jimpy (Plp1 jimpy) mouse iPSC-derived oligodendrocyte progenitor cells
Assay: MBP+ mature oligodendrocyte number relative to DMSO vehicle control (SDs above negative control mean); higher = more surviving jimpy oligodendrocytes (rescue)
Conditions: 10 µM; 3 days
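Note: 10 µM single dose with 3-day oligodendrocyte differentiation.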

Going from `CCCCCCCCCCCC1=C(O)C(=O)C=C(O)C1=O` [Embelin] to `CCCCC[C@H](O)/C=C/[C@H]1[C@H](O)CC(=O)[C@@H]1CCCCCCC(=O)O` [Alprostadil], the “MBP+ mature oligodendrocyte number” value falls from 3.95 to 0.793.

Compared with `COc1c2ccoc2cc2oc(=O)ccc12` [Bergapten], `O=c1ccc2ccccc2o1` [Coumarin] is higher in “MBP+ mature oligodendrocyte number” value: -1.11 for the first, 1.84 for the second.

Going from `CNCc1cc(-c2ccccc2F)n(S(=O)(=O)c2cccnc2)c1` to `Nc1ccc(S(=O)(=O)Nc2ccccn2)cc1` [Sulfapyridine], the “MBP+ mature oligodendrocyte number” value falls from 2.37 to -0.467.

First: O=C1C(O)=C([C@H]2CC[C@H](c3ccc(Cl)cc3)CC2)C(=O)c2ccccc21 [Atovaquone]
Second: CN1CCC[C@@H]1CCO[C@](C)(c1ccccc1)c1ccc(Cl)cc1 [Clemastine fumarate]
The “MBP+ mature oligodendrocyte number” value of the first is higher: 0.104 for the first, -3.26 for the second.

First: CC(C)NCC(O)c1ccc(O)c(O)c1 (single isomer, unassigned; (-)) [(-)-Isoproterenol hydrochloride]
Second: CC(C)(C)NCC(O)c1cc(O)cc(O)c1 (centres undefined) [Terbutaline hemisulfate]
The “MBP+ mature oligodendrocyte number” value of the first is lower: -0.48 for the first, 0.146 for the second.

Going from `NCCNS(=O)(=O)c1cccc2c(Cl)cccc12` [A3 hydrochloride] to `COC(=O)C(N)Cc1ccc(Cl)cc1` (racemic) [DL-p-Chlorophenylalanine methyl ester hydrochloride], the “MBP+ mature oligodendrocyte number” value rises from -2.82 to -0.433.

Compared with `Cc1ccccc1C(OCCN(C)C)c1ccccc1` (centres undefined) [Orphenadrine hydrochloride], `CC/C(=C(\c1ccccc1)c1ccc(OCCN(C)C)cc1)c1ccccc1` [Tamoxifen citrate] is lower in “MBP+ mature oligodendrocyte number” value: -1.11 for the first, -3.78 for the second.

First: Cc1ccccc1C(OCCN(C)C)c1ccccc1 (centres undefined) [Orphenadrine Citrate]
Second: CC/C(=C(\c1ccccc1)c1ccc(OCCN(C)C)cc1)c1ccccc1 [Tamoxifen]
The “MBP+ mature oligodendrocyte number” value of the first is higher: -0.467 for the first, < -4.47 for the second.

Going from `C=C(c1ccc(C(=O)O)cc1)c1cc2c(cc1C)C(C)(C)CCC2(C)C` [Bexarotene] to `CC(C(=O)O)c1ccc2c(c1)CC(=O)c1ccccc1S2` (centres undefined) [Zaltoprofen], the “MBP+ mature oligodendrocyte number” value falls from 0.996 ± 0.18 to -0.848.

First: CN(C)CCCCC(=O)Nc1ccc(NC(=S)NC(=O)c2ccc(C(C)(C)C)cc2)cc1 [Tenovin-6]
Second: CC/C(=C(\c1ccccc1)c1ccc(OCCN(C)C)cc1)c1ccccc1 [Tamoxifen Citrate]
The “MBP+ mature oligodendrocyte number” value of the first is lower: < -6.35 for the first, -5.06 for the second.

First: O=C(O)CCCCC1CCSS1 (racemic) [(±)-alpha-Lipoic Acid]
Second: O=C(c1ccc(OCCCc2c[nH]cn2)cc1)C1CC1 [Ciproxifan hydrochloride]
The “MBP+ mature oligodendrocyte number” value of the first is lower: -1.6 for the first, 0.921 for the second.

Compared with `CC[N+](CC)(CC)CCOc1cccc(OCC[N+](CC)(CC)CC)c1OCC[N+](CC)(CC)CC` [Gallamine Triethiodide], `CCCCOc1cc(CC2CNC(=O)N2)ccc1OC` (centres undefined) is lower in “MBP+ mature oligodendrocyte number” value: -0.108 for the first, -0.668 for the second.

First: CC[N+](CC)(CC)CCOc1cccc(OCC[N+](CC)(CC)CC)c1OCC[N+](CC)(CC)CC [Gallamine triethiodide]
Second: CCN(CCCOc1ccc2c(Nc3cc(CC(=O)Nc4cccc(F)c4)[nH]n3)ncnc2c1)CCOP(=O)(O)O [Barasertib (AZD1152-HQPA)]
The “MBP+ mature oligodendrocyte number” value of the first is higher: -1.8 for the first, -3.82 for the second.

Going from `CCOC(=O)[N-]c1c[n+](N2CCOCC2)no1` [Molsidomine] to `CCCCN1CCCCC1C(=O)Nc1c(C)cccc1C` (centres undefined) [Bupivacaine HCl], the “MBP+ mature oligodendrocyte number” value falls from 1.13 to -0.388.

Compared with `CCc1oc2ccccc2c1C(=O)c1cc(Br)c(O)c(Br)c1` [Benzbromarone], `CCOC(=O)c1c(CSc2ccccc2)n(C)c2cc(Br)c(O)c(CN(C)C)c12` [Arbidol HCl] is lower in “MBP+ mature oligodendrocyte number” value: 0.238 for the first, -3.63 for the second.

Compared with `COC(=O)[C@]12CCC(C)(C)C[C@H]1[C@H]1C(=O)C=C3[C@@]4(C)C=C(C#N)C(=O)C(C)(C)[C@@H]4CC[C@@]3(C)[C@]1(C)CC2` [Bardoxolone Methyl], `CC(=O)[C@H]1CC[C@H]2[C@@H]3CC=C4C[C@@H](O)CC[C@]4(C)[C@H]3CC[C@]12C` [Pregnenolone] is higher in “MBP+ mature oligodendrocyte number” value: -4.64 for the first, -3.89 for the second.

Going from `O=C(O)c1cccnc1C(=O)O` [Quinolinic acid] to `O=C(O)c1ccccc1` [Benzoic Acid], the “MBP+ mature oligodendrocyte number” value rises from -0.533 to 0.66.

First: CCN1CCC[C@H]1CNC(=O)c1c(O)c(Cl)cc(Cl)c1OC [S(+)-Raclopride L-tartrate]
Second: CN1CCC[C@@H]1CCO[C@](C)(c1ccccc1)c1ccc(Cl)cc1 [Clemastine Fumarate]
The “MBP+ mature oligodendrocyte number” value of the first is higher: -0.533 for the first, < -5.15 for the second.

Compared with `CN(CC[C@@H](Oc1ccc(C(F)(F)F)cc1)c1ccccc1)CC(=O)[O-].[Li+]`, `CCOc1ccccc1OC(c1ccccc1)C1CNCCO1` (centres undefined) [Reboxetine mesylate] is lower in “MBP+ mature oligodendrocyte number” value: 0.588 for the first, -2.75 for the second.

Going from `CC[C@@H]([C@H](C)O)n1ncn(-c2ccc(N3CCN(c4ccc(OC[C@@H]5CO[C@@](Cn6cncn6)(c6ccc(F)cc6F)C5)cc4)CC3)cc2)c1=O` [Posaconazole] to `COc1ccc(CN2CCN(C(c3ccc(F)cc3)c3ccc(F)cc3)CC2)c(OC)c1OC` [Lomerizine HCl], the “MBP+ mature oligodendrocyte number” value rises from -6.35 to -6.27.

First: CCOc1ccc(NC(C)=O)cc1 [Phenacetin]
Second: COCCc1ccc(OCC(O)CNC(C)C)cc1 (centres undefined) [Metoprolol Tartrate]
The “MBP+ mature oligodendrocyte number” value of the first is higher: -0.22 for the first, -1.46 for the second.

Compared with `O=C(c1ccc(OCCCc2c[nH]cn2)cc1)C1CC1` [Ciproxifan], `COC1CCN(C(=O)c2cc(Cc3n[nH]c(=O)c4ccccc34)ccc2F)CC1` is higher in “MBP+ mature oligodendrocyte number” value: 2.09 for the first, 2.69 for the second.

First: CC(C)[C@H](N)C(=O)OCC(CO)OCn1cnc2c(=O)[nH]c(N)nc21 (some centres undefined) [Valganciclovir HCl]
Second: O=c1[nH]cnc2c1ncn2[C@@H]1O[C@H](CO)[C@@H](O)[C@H]1O [Inosine]
The “MBP+ mature oligodendrocyte number” value of the first is higher: 3.45 for the first, -0.556 for the second.

First: CC(C)[C@H](N)C(=O)OCC(CO)OCn1cnc2c(=O)[nH]c(N)nc21 (some centres undefined) [Valganciclovir hydrochloride hydrate]
Second: CC(C)Cn1c(=O)n(C)c(=O)c2[nH]cnc21 [3-Isobutyl-1-methylxanthine]
The “MBP+ mature oligodendrocyte number” value of the first is higher: 1.08 for the first, 0.657 for the second.

Compared with `CC(C(=O)O)c1ccc(C(=O)c2cccs2)cc1` (centres undefined) [Suprofen], `CC(C)Cc1ccc(C(C)C(=O)O)cc1` (centres undefined) [Ibuprofen] is higher in “MBP+ mature oligodendrocyte number” value: -1.01 for the first, 3.85 for the second.

`COc1cc2ncnc(Nc3ccc(F)c(Cl)c3)c2cc1OCCCN1CCOCC1` [Gefitinib (ZD1839)] and `Nc1ccc(C(=O)Nc2cccc(-c3nc(N4CCOCC4)c4oc5ncccc5c4n3)c2)cn1` are the same in “MBP+ mature oligodendrocyte number” value: -6.52 for the first, -6.52 for the second.

Going from `CN1CCN(c2nc(C3=C(c4c[nH]c5ccccc45)C(=O)NC3=O)c3ccccc3n2)CC1` [Sotrastaurin] to `CCN1CCN(Cc2ccc(-c3cc4c(N[C@H](C)c5ccccc5)ncnc4[nH]3)cc2)CC1`, the “MBP+ mature oligodendrocyte number” value falls from -4.18 to < -5.15.

`CCN1CCN(Cc2ccc(Nc3ncc(F)c(-c4cc(F)c5nc(C)n(C(C)C)c5c4)n3)nc2)CC1` and `Cc1nc(Nc2ncc(C(=O)Nc3c(C)cccc3Cl)s2)cc(N2CCN(CCO)CC2)n1` [Dasatinib] cannot be ordered by “MBP+ mature oligodendrocyte number” value: < -6.35 for the first, < -6.7 for the second.

First: Cc1cnc(C(=O)O)c[n+]1[O-] [Acipimox]
Second: Cc1nc(-c2ccc(OCC(C)C)c(C#N)c2)sc1C(=O)O [Febuxostat]
The “MBP+ mature oligodendrocyte number” value of the first is lower: 1.06 for the first, 3.94 for the second.

Going from `O=C(c1cncc(Br)c1)N1CCC(N2CCCC2)CC1` to `c1cncc(CN2CCC(n3ncc4c(N5CCOCC5)nc(-c5ccc6[nH]ccc6c5)nc43)CC2)c1`, the “MBP+ mature oligodendrocyte number” value falls from 2.61 to < -6.01.

First: O=c1c(O)c(-c2ccc(O)c(O)c2)oc2cc(O)cc(O)c12 [Quercetin Dihydrate]
Second: Oc1cc2c(cc1O)[C@@H]1c3ccc(O)c(O)c3OC[C@]1(O)C2 [Hematoxylin]
The “MBP+ mature oligodendrocyte number” value of the first is lower: -3.19 for the first, 1.57 for the second.

Compared with `O=c1c(O)c(-c2ccc(O)c(O)c2)oc2cc(O)cc(O)c12` [Quercetin dihydrate], `O=C(O)[C@H]1O[C@@H](Oc2cc3oc(-c4ccccc4)cc(=O)c3c(O)c2O)[C@H](O)[C@@H](O)[C@@H]1O` [Baicalin] is higher in “MBP+ mature oligodendrocyte number” value: -3.25 for the first, 0.395 for the second.

First: O=c1c(O)c(-c2ccc(O)c(O)c2)oc2cc(O)cc(O)c12 [Quercetin]
Second: N[C@@H](Cc1ccc(O)c(I)c1)C(=O)O [3-Iodo-L-tyrosine]
The “MBP+ mature oligodendrocyte number” value of the first is lower: -2.91 for the first, -0.049 for the second.

Compared with `O=C(O)C1(C(=O)O)CCC1.[NH2-].[NH2-].[Pt+2]` [Carboplatin], `N[C@H](C(=O)O)[C@H]1C[C@@H]1C(=O)O` [(2S,1'S,2'S)-2-(carboxycyclopropyl)glycine] is higher in “MBP+ mature oligodendrocyte number” value: -1.86 ± 0.3 for the first, 0.555 for the second.

First: Nc1ccn([C@@H]2O[C@H](CO)[C@@H](O)[C@@H]2O)c(=O)n1 [Cytarabine]
Second: COc1cc([C@@H]2c3cc4c(cc3[C@@H](O[C@@H]3O[C@@H]5CO[C@@H](c6cccs6)O[C@H]5[C@H](O)[C@H]3O)[C@H]3COC(=O)[C@H]23)OCO4)cc(OC)c1O [Teniposide]
The “MBP+ mature oligodendrocyte number” value of the first is higher: -2 for the first, < -5.15 for the second.

Going from `Nc1ccn([C@@H]2O[C@H](CO)[C@@H](O)[C@@H]2O)c(=O)n1` [Cytosine-1-beta-D-arabinofuranoside hydrochloride] to `Nc1ncnc2c1ncn2C1CCCO1` (centres undefined), the “MBP+ mature oligodendrocyte number” value rises from -1.85 to 0.217.

`Cc1[nH]c2ccccc2c1CCNCc1ccc(/C=C/C(=O)NO)cc1` [Panobinostat (LBH589)] and `CN(C)CCCN1c2ccccc2Sc2ccc(Cl)cc21` [Chlorpromazine hydrochloride] cannot be ordered by “MBP+ mature oligodendrocyte number” value: < -6.7 for the first, < -3.34 for the second.

Going from `O=C1NC(=O)/C(=C/c2ccc3c(c2)OC(F)(F)O3)S1` to `CN(C)CCCN1c2ccccc2Sc2ccc(Cl)cc21` [Chlorpromazine HCl], the “MBP+ mature oligodendrocyte number” value falls from 5.1 to -4.7.

Compared with `CN(C)c1ccc(C(=C2C=CC(=[N+](C)C)C=C2)c2ccc(N(C)C)cc2)cc1` [Crystal Violet], `Cc1cc(Nc2nc(N[C@@H](C)c3ccc(F)cc3)c(C#N)cc2F)n[nH]1` is higher in “MBP+ mature oligodendrocyte number” value: < -5.15 for the first, -4.36 for the second.

`COc1ccc(CC2c3cc(OC)c(OC)cc3CC[N+]2(C)CCC(=O)OCCCCCOC(=O)CC[N+]2(C)CCc3cc(OC)c(OC)cc3C2Cc2ccc(OC)c(OC)c2)cc1OC` (centres undefined) [Atracurium Besylate] was tested, and the “MBP+ mature oligodendrocyte number” value was 1.6.
